The values that follow come from ChEMBL document CHEMBL1961873, “Compounds: GSK PKIS; Assays: Nanosyn kinase panel” (2012).

The target of experiment [1] is Serine/threonine-protein kinase pim-2 (Homo sapiens) (UniProt Q9P1W9). The conditions noted are these: at 1 µM.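 Also: each value is a mean of the inhibition measurements against the kinase.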
The target of experiment [2] is Serine/threonine-protein kinase pim-3 (Homo sapiens) (UniProt Q86V86). The conditions noted are these: at 0.1 µM.
Experiment [3] has the same target. The settings on record: at 1 µM.
Experiment [4] has as its target T1, MAP kinase-activated protein kinase 5 (Homo sapiens) (UniProt Q8IW41).
T1 sequence (whole entry): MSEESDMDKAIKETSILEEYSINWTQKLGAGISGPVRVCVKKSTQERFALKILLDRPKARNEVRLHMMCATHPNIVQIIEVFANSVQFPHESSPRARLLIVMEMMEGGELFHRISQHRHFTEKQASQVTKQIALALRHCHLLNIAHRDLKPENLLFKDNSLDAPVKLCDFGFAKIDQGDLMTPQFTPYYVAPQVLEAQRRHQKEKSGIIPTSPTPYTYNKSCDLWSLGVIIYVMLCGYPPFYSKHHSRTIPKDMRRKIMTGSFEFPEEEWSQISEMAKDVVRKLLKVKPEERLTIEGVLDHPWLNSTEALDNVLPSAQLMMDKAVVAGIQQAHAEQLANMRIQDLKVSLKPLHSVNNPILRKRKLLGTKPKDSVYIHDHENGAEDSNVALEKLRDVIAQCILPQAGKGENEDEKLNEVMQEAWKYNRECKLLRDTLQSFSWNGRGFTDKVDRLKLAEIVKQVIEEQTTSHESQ
The conditions noted are these: at 0.1 µM.

Experiment [5] deals with T1, MAP kinase-activated protein kinase 5 (Homo sapiens). The settings on record: at 1 µM.
The target in experiment [6] is Serine/threonine-protein kinase SIK1 (Homo sapiens) (UniProt P57059). The settings on record: at 0.1 µM.
UniProt P57059, sequence (P57059 whole entry): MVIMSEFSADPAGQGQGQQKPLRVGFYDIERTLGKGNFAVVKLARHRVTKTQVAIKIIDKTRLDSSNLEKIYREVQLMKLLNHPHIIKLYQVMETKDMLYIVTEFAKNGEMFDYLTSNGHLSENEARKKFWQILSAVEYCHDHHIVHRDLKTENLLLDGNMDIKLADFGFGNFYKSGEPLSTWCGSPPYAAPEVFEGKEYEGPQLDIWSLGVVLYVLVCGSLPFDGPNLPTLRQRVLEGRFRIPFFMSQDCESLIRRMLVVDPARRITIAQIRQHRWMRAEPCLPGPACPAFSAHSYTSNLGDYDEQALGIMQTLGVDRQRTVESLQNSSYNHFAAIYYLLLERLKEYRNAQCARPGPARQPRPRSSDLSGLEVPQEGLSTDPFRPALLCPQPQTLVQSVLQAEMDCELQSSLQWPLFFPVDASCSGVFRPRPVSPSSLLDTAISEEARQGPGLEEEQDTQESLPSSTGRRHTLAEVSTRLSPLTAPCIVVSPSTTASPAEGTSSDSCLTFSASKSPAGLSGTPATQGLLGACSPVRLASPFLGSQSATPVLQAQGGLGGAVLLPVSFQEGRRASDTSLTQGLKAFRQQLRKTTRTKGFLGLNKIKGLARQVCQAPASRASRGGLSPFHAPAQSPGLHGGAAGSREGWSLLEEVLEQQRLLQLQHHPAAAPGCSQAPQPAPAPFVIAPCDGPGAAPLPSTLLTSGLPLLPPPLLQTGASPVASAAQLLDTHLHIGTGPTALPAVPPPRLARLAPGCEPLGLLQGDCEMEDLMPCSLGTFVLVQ
The target is the same in experiment [7]. The settings on record: at 1 µM.
The target of experiment [8] is Serine/threonine-protein kinase SIK2 (Homo sapiens) (UniProt Q9H0K1). The conditions noted are these: at 0.1 µM.
UniProt Q9H0K1, sequence (Q9H0K1 whole entry, looked up): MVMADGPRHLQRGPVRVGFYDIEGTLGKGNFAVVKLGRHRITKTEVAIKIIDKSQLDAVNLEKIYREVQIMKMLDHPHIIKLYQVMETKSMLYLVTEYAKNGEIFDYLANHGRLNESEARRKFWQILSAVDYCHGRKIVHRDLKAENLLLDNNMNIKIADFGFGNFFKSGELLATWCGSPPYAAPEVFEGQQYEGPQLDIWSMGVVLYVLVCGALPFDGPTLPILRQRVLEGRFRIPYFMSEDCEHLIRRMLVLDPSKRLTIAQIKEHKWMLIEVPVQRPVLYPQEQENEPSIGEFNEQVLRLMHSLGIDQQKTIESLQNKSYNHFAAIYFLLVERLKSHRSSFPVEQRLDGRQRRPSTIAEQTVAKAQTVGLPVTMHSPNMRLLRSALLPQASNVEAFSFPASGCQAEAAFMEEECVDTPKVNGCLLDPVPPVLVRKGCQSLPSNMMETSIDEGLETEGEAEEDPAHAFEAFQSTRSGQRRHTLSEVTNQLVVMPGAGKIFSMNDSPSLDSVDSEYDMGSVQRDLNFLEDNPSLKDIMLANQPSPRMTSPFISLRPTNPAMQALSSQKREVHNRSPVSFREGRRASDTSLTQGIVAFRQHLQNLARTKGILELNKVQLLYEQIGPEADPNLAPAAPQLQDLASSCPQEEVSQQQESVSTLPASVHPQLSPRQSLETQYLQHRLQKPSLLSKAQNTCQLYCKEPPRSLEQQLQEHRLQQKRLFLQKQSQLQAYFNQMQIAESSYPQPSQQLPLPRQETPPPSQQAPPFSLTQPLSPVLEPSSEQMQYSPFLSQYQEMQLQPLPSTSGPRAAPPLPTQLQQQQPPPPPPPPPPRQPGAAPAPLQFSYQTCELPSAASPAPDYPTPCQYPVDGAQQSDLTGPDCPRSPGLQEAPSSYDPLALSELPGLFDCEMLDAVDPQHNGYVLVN
Experiment [9] shares this target. The settings on record: at 1 µM.
For experiment [10], the target named is T2, Serine/threonine-protein kinase TBK1 (Homo sapiens) (UniProt Q9UHD2).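 Also: values are the mean TBK1 inhibition, taken from the GSK PKIS screening data.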
T2 sequence (whole entry): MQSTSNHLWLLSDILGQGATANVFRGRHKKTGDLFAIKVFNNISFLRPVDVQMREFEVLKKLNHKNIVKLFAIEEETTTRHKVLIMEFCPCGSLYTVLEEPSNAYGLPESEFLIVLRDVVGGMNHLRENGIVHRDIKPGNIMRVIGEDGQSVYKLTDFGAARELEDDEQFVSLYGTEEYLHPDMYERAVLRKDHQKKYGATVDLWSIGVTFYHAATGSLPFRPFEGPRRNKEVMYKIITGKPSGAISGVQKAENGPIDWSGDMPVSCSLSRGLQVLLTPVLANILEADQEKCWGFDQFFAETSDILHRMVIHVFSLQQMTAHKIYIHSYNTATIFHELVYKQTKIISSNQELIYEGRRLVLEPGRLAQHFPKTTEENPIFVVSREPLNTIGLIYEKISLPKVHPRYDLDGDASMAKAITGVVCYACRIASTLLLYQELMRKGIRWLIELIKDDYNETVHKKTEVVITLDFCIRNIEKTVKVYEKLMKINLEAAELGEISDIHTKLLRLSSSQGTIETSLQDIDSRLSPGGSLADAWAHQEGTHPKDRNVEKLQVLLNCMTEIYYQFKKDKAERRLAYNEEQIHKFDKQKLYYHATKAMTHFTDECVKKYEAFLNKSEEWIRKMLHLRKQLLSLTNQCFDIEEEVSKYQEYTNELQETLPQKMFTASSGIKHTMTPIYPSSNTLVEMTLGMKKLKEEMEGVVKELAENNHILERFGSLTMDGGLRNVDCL
The conditions noted are these: at 0.1 µM.

For some of these results: The strong results were mostly taken out for another list; the other results follow. Only a part is listed here, and it is no random draw.

UniProt Q9P1W9, sequence (Q9P1W9 whole entry, looked up): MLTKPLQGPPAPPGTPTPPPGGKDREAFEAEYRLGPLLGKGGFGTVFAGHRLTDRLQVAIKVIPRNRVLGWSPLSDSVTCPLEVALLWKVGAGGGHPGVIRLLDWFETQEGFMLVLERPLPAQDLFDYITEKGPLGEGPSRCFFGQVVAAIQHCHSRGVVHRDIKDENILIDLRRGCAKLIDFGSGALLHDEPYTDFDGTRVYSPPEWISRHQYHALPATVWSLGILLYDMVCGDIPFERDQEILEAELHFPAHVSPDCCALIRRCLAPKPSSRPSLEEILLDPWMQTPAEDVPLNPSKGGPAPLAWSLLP

The term inhibition denotes the relative decrease from the control value, in per cent. For `Fc1ccc(-c2ncn(C3CCNCC3)c2-c2ccnc(Oc3ccc(Cl)cc3)n2)cc1`, the inhibition in experiment [1] was determined as 1.13%; in [2], 0.92%; in experiment [3] it was 1.65%; in experiment [4], 0.49%; in experiment [5] it was 0.27%; in experiment [6] it was 2.71%. Moreover, the inhibition in experiment [7] is 7.66%; in experiment [8], -0.28%; in [9] it was -0.03%; in experiment [10], -0.4%.
Consider `Fc1ccc(-c2ncn(C3CCNCC3)c2-c2ccnc(Oc3cccc(F)c3)n2)cc1`, for which the inhibition in [1] was -0.55%; in experiment [2], 0.23%; in experiment [3], 2.96%; in experiment [4] it was 2.07%; in experiment [5] it was 2.21%; in [6] it was 2.7%. For the same molecule, the inhibition in experiment [7] came out at 12%; in [8], 4.38%; in experiment [9] it was 10.9%; in experiment [10], 3.75%.
For the molecule `COc1ccccc1C1=C(Nc2ccccc2)C(=O)NC1=O`, the inhibition was 0.14% in experiment [1]; -0.2% in [2]; 1.17% in experiment [3]; 0.91% in experiment [4]; 1.14% in experiment [5]; 8.64% in experiment [6]. The inhibition is 18.2% in [7], 7.72% in [8], 27.8% in [9] and 2.56% in [10].
Consider `CC(C)(C)c1ccc(Oc2nccc(-c3c(-c4ccc(F)cc4)ncn3C3CCNCC3)n2)cc1`, for which the inhibition in experiment [1] came out at 0.77%; in experiment [2], 0.02%; in experiment [3] it was 1.23%; in experiment [4] it was 1.26%; in [5], 0.81%; in [6], 5.1%. The inhibition in experiment [7] came out at 8.61%; in experiment [8], 6.78%; in experiment [9], 15.9%; in experiment [10] it was 1.92%.
As to `O=C1NC(=O)C(c2ccccc2)=C1Nc1ccccc1`, the inhibition in [1] stood at 6.61%; in experiment [2], 4.19%; in experiment [3] it was 9.78%; in experiment [4] it was 2.24%; in experiment [5], 2.98%; in experiment [6], 7.22%. Also, the inhibition was found to be 13.4% in [7], 8.29% in experiment [8], 13.6% in [9] and 2.92% in experiment [10].
For the molecule `NC(=O)CCc1ccccc1Oc1nccc(-c2c(-c3ccc(F)cc3)ncn2C2CCNCC2)n1`, the inhibition in [1] was 0.12%; in experiment [2], 0.62%; in experiment [3], 1.86%; in [4], -0.4%; in [5] it was -0.44%; in experiment [6] it was -2.99%. For the same molecule, the inhibition was -8.81% in experiment [8], -5.47% in experiment [9] and 2.53% in experiment [10].
Regarding `Fc1ccc(-c2ncn(C3CCNCC3)c2-c2ccnc(Oc3cccc(C(F)(F)F)c3)n2)cc1`, the inhibition was 0.36% in experiment [1]; 0.35% in [2]; 1.37% in [3]; 2.24% in [4]; 2.15% in experiment [5]; 5.71% in [6]. The inhibition in [7] came out at 10.1%; in [8], 4.99%; in [9] it was 9.11%; in experiment [10], 4.6%.
Consider `O=C1NC(=O)C(c2cccc([N+](=O)[O-])c2)=C1Nc1cc(Cl)c(O)c(Cl)c1`, for which the inhibition in experiment [1] is 1.61%; in [2], -0.07%; in [3] it was 0.87%; in [4], 0.57%; in experiment [5] it was 0.55%; in [6] it was 0.44%. The inhibition in experiment [7] was 3.71%; in experiment [8] it was -0.86%; in experiment [9], 5.17%; in [10], 7.31%.
`COc1ccccc1Oc1nccc(-c2c(-c3ccc(F)cc3)ncn2C2CCNCC2)n1`: the inhibition was found to be 0.22% in [1]; 0.3% in experiment [2]; 0.98% in experiment [3]; 2.17% in experiment [4]; 2.36% in experiment [5]; 2.31% in experiment [6]. Also, the inhibition in experiment [7] is 9%; in experiment [8] it was 4.38%; in experiment [9] it was 13.6%; in [10] it was 3.06%.
`O=C(O)c1ccc(Oc2nccc(-c3c(-c4ccc(F)cc4)ncn3C3CCNCC3)n2)cc1`: the inhibition in experiment [1] was -0.48%; in experiment [2] it was 0.4%; in experiment [3], 1.76%; in [4] it was 3.09%; in [5], 1.69%; in experiment [6] it was 2.57%. The inhibition worked out at 12.6% in experiment [7], 0.04% in experiment [8], 8.52% in experiment [9] and 4.78% in experiment [10].
In the case of `Cc1cccc(Oc2nccc(-c3c(-c4ccc(F)cc4)ncn3C3CCNCC3)n2)c1C`, the inhibition is 0.06% in experiment [1]; -0.86% in experiment [2]; 0.15% in experiment [3]; 1.27% in [4]; 1.32% in [5]; 0.93% in experiment [6]. In addition, the inhibition in experiment [7] turned out to be 9.26%; in experiment [8] it was 7.26%; in experiment [9], 12.6%; in experiment [10], 1.51%.
Consider `CS(=O)(=O)c1ccc(Oc2nccc(-c3c(-c4ccc(F)cc4)ncn3C3CCNCC3)n2)cc1`, for which the inhibition was 0.6% in [1]; 0.09% in experiment [2]; -0.2% in experiment [3]; 1.47% in experiment [4]; 1.7% in experiment [5]; 3.17% in experiment [6]. Also, the inhibition in experiment [7] came to 6.69%; in [8], 1.55%; in [9], 4.8%; in [10], 0.81%.
Consider `O=C1NC(=O)C(c2ccccc2Cl)=C1Nc1cc(Cl)c(O)c(Cl)c1`, for which the inhibition in [1] came out at 0.46%; in experiment [2] it was 0.36%; in experiment [3], 3.53%; in experiment [4], 2.09%; in [5], 2.74%; in experiment [6], 3.99%. In addition, the inhibition is 5.76% in [7], 6.42% in [8], -0.37% in [9] and 0.38% in experiment [10].
For `Fc1ccc(Oc2nccc(-c3c(-c4ccc(F)cc4)ncn3C3CCNCC3)n2)cc1`, the inhibition in experiment [1] was -4.57%; in experiment [2] it was -0.79%; in experiment [3], 0.31%; in experiment [4], 2.6%; in experiment [5] it was 2.88%; in experiment [6], 4%. The inhibition in experiment [7] turned out to be 10.3%; in experiment [8], 1.1%; in experiment [9], 8.54%; in experiment [10], 5.6%.
